From patent US20190345250A1, “ANTIBODY DRUG CONJUGATES” (NOVARTIS AG, priority 2013, published 2019)

What was measured:
human FGFR2 IIIc = target: T1, human FGFR2 IIIc (Homo sapiens, UniProt P21802); experiment: ELISA/FACS screening of panning outputs for specificity and cross-reactivity; format: binding; details: Uniprot Accession # P21802-1
T1 construct: residues 22-378-TAG; made in house

human FGFR2 IIIb = target: T2, human FGFR2 IIIb (Homo sapiens, UniProt P21802); experiment: as above; format: binding; details: Uniprot Accession # P21802-3
T2 construct: residues 22-378-TAG; made in house

B1: Antibody 11725 (antibody)
heavy: QVQLLESGGGLVQPGGSLRLSCAASGFTFNTYWLHWVRQAPGKGLEWVSVISSDSSSTYYADSVKGRFTISRDNSKNTLYLQMNSLRAEDTAVYYCARDSRLDYWGQGTLVTVSSASTKGPSVFPLAPSSKSTSGGTAALGCLVKDYFPEPVTVSWNSGALTSGVHTFPAVLQSSGLYSLSSVVTVPSSSLGTQTYICNVNHKPSNTKVDKRV[human IgG1 Fc cut from this listing]
light: DIELTQPPSVSVSPGQTASITCSGDSIGDTYVDWYQQKPGQAPVLVIYDDIDRPSGIPERFSGSNSGNTATLTISGTQAEDEADYYCYVYAWTGTSNVFGGGTKLTVLGQPKAAPSVTLFPPSSEELQANKATLVCLISDFYPGAVTVAWKADSSPVKAGVETTTPSKQSNNKYAASSYLSLTPEQWKSHRSYSCQVTHEGSTVEKTVAPTECS
Q: How did the “binding to FGFR2 IIIc isoform” value (human FGFR2 IIIc) turn out when B1 was run?
A: found to bind

Q: What about the “binding to FGFR2 IIIb isoform” value (human FGFR2 IIIb) of the same molecule?
A: found to bind
